Experimental data published in the supplement of paper PMC3334620.
The full ranking holds about 33,000 sequences; the median of “E-score (-0.5 to 0.5)” is about -0.035, and the highest 2% start at about 0.34. This is one part of the list.

Each sequence was assayed against T1, Mot3 (UniProt P54785) (assay: PBM E-score (8-mer binding enrichment) (E-score (-0.5 to 0.5)); higher = stronger / more preferred TF binding; most listed sequences are background and not binding sites). Settings: protein concentration: 200 nM; construct: GST-full length.
T1 sequence: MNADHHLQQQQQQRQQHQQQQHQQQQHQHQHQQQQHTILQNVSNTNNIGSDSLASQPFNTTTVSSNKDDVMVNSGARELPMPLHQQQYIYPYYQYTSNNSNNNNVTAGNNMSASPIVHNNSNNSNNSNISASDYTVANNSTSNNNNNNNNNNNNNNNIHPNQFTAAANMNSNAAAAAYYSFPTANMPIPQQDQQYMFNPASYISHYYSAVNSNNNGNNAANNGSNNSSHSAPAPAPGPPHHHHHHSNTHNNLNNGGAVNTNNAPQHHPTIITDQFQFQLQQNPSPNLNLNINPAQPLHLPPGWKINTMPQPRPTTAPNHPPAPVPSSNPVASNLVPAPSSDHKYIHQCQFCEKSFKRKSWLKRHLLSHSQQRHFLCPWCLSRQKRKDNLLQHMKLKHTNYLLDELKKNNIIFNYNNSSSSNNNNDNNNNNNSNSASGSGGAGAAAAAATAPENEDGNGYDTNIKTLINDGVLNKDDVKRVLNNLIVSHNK
Outline: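 Masliner-normalised scans of fluorescent anti-GST signal were the basis for scoring. That signal came from GST-tagged yeast transcription factors applied at about 100-200 nM to double-stranded universal all-10-mer Agilent arrays on fresh or once-stripped slides. Each ungapped eight-base word, pooled with its reverse complement, received an E-score from the Universal PBM Analysis Suite.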

| Sequence | PBM E-score |
| --- | --- |
| GAGGCAGC | -0.0844 |
| GAGTTGGA | -0.217 |
| GACATCCA | -0.0449 |
| GTAGGTCA | -0.0891 |
| CGGTGGTA | 0.0303 |
| AATGCGGC | -0.00737 |
| CGTGATAC | -0.0673 |
| GGATCTCA | -0.274 |
| GTATGGGA | -0.0874 |
| ATTTGACG | 0.0744 |
| GAACCCAA | -0.14 |
| ATCAGATG | -0.0793 |
| GCAACTCC | -0.052 |
| CCTCCCTC | -0.107 |
| TAAATGAA | 0.0305 |
| GCTCTGAC | -0.179 |
| CCGGAACA | -0.0722 |
| ACCACATG | 0.0906 |
| GGCCCAAC | -0.144 |
| CTGCCAAC | -0.0159 |
| ACTTAGGC | 0.278 |
| ACCCCGTC | -0.286 |
| AACCATGC | -0.0839 |
| AGTTAAAC | 0.171 |
| ACGGCCAG | -0.256 |

| Sequence | PBM E-score |
| --- | --- |
| AAAGTCAA | -0.0164 |
| CGGCCCCG | -0.384 |
| AGGGTTAC | -0.0583 |
| AAATCAAT | 0.245 |
| AACAAGAT | 0.17 |
| CAACCGCG | 0.0944 |
| CGATGCAC | -0.223 |
| AGTCCAGG | -0.121 |
| CTATCTAA | 0.0476 |
| CCCGGAGG | -0.26 |
| CACTCTAG | -0.145 |
| GATCACAC | 0.0429 |
| GCTGTCAC | -0.0479 |
| CGGTTCCA | -0.355 |
| AGGGTTTC | 0.0136 |
| CCTTATTC | -0.0101 |
| ACAACGTA | 0.182 |
| ACACCGCC | -0.095 |
| AGAACGGG | -0.0837 |
| CTGAAAAA | 0.0759 |
| CTCGACTC | -0.06 |
| ACCTACAA | 0.277 |
| GAAATTCC | -0.0993 |
| ATGGTAAG | -0.094 |
| CAAACATC | 0.205 |

| Sequence | PBM E-score |
| --- | --- |
| AAATAGTT | 0.0934 |
| AACGCGCC | 0.106 |
| TATCAGGA | 0.103 |
| ACAGGTAC | 0.423 |
| CCCATTGC | 0.0234 |
| GCGGACGC | -0.24 |
| ACAGTTCA | 0.025 |
| CATTCTGA | -0.0972 |
| GGATGGAC | -0.231 |
| GTCTGTAA | 0.149 |
| GAACGATC | 0.189 |
| TCACTGGA | -0.0505 |
| CTACCCGC | -0.194 |
| CCTCCCGA | -0.181 |
| CGCCTCCA | -0.0882 |
| ATCACTGC | -0.141 |
| GCGCTCAA | -0.193 |
| CACCCTAA | 0.0169 |
| AAGGCCCA | -0.0452 |
| AGATCGTG | 0.114 |
| CACGCATG | 0.212 |
| CCTGGTCA | -0.0659 |
| AATCATCT | 0.0152 |
| ACCTAGTA | 0.211 |
| AAGATAAG | 0.12 |

| Sequence | PBM E-score |
| --- | --- |
| ACCTATCA | 0.108 |
| CACGGCGG | -0.0365 |
| CTATACGA | 0.0128 |
| ATATGCTC | -0.11 |
| ATACGCAT | 0.18 |
| TTCTGCAA | -0.0221 |
| TCTGCCAA | -0.0634 |
| GGCCTTAA | 0.0792 |
| AAGCAGGA | -0.0405 |
| CCATATGG | -0.269 |
| ATGTGACC | -0.0699 |
| ATGAGAGA | -0.0279 |
| CTGAGTCA | -0.0693 |
| AACCAAGT | 0.0917 |
| AGACGATA | -0.12 |
| AATGCGGA | -0.119 |
| TACCGGTA | -0.021 |
| GGGCTGTA | 0.0198 |
| AAGACTTA | 0.0882 |
| AACCGAAA | 0.0854 |
| AGTCTGCC | -0.276 |
| AGACCTGC | -0.0529 |
| CATACCGA | -0.00061 |
| CCCCCAGC | -0.434 |
| GGTCCCAA | -0.238 |

| Sequence | PBM E-score |
| --- | --- |
| CGACTGGA | -0.37 |
| ATCCACAC | -0.0909 |
| TACTTCCA | 0.0637 |
| CGTCGGTC | -0.11 |
| AAGTGTCG | 0.0843 |
| GATGATCA | -0.29 |
| GCCATACA | -0.0474 |
| ACTAATCG | -0.00748 |
| CGCGCTAG | -0.0539 |
| GAGCACGA | -0.122 |
| ATAGGAGA | 0.0332 |
| GGCCGTAA | -0.234 |
| AGCTAGAT | -0.0173 |
| TAGGTTCA | 0.123 |
| CCCCTTGA | -0.113 |
| GCAGACAC | -0.00428 |
| ATCAAATG | 0.074 |
| CCGGAATA | -0.125 |
| GTTAAGCA | 0.0926 |
| GTTAGCTA | -0.0892 |
| CGGCATGC | -0.291 |
| AGAATGCA | -0.0199 |
| TGCCTACA | 0.487 |
| ACTAGGGG | -0.223 |
| AATGTAAA | 0.374 |

| Sequence | PBM E-score |
| --- | --- |
| GTGGTTAA | 0.105 |
| GCGGGGAC | -0.0447 |
| CGTCGTGC | 0.118 |
| AGGTATAA | 0.0672 |
| CCTTGAGA | 0.0531 |
| CTATGCGA | -0.042 |
| CCAATCAA | -0.0159 |
| AGGGTAAA | 0.0616 |
| ACATAGTA | 0.27 |
| AACTTAAT | 0.113 |
| AACATATG | 0.27 |
| GGCTAGCA | -0.146 |
| CCCGTGCG | -0.0432 |
| CATGACCA | 0.208 |
| ATAATCAT | 0.162 |
| ACCAGATC | -0.137 |
| AGGGAACC | 0.00909 |
| CGATCCTA | -0.126 |
| GAGCTCGC | -0.207 |
| GAGTGTAA | 0.249 |
| ACAACGCG | 0.191 |
| AAGGCGGC | -0.066 |
| AGGGCAAT | -0.151 |
| AAGGAAAA | 0.417 |
| CCAGTATC | -0.235 |

| Sequence | PBM E-score |
| --- | --- |
| ACTACGTC | -0.0369 |
| GATCGTCC | -0.167 |
| CTTGCCCC | -0.209 |
| GAATGGGA | -0.216 |
| ATATCTTC | -0.116 |
| TTGTTAAA | 0.256 |
| CATAATCC | -0.0632 |
| AGAACAGG | 0.184 |
| GCGCAGTA | -0.216 |
| AAGCACCC | -0.152 |
| CCGAATTA | -0.0877 |
| CACGGTTC | 0.133 |
| ATGACGCC | 0.0853 |
| ACCTACCT | 0.14 |
| ATCGAACG | -0.069 |
| AAATATGA | 0.0681 |
| CTGAGGAC | 0.0105 |
| GGTGTCGA | 0.046 |
| ACATCTGC | -0.0464 |
| CTACTGCC | 0.013 |
| GCCCTTGA | -0.0731 |
| CGGAAGAA | -0.00032 |
| CAACCTCA | -0.0585 |
| AAAAACTG | -0.0347 |
| CGGCAGGA | -0.0555 |

| Sequence | PBM E-score |
| --- | --- |
| GAGGCTAA | -0.134 |
| ACGCTAGT | -0.15 |
| CGGTGGCC | -0.169 |
| CCCGCAAC | 0.104 |
| TAGATGAA | 0.153 |
| CAAATTGA | -0.0406 |
| AAGCTGCA | -0.0471 |
| AAGCCTCT | -0.147 |
| AAGGTGAG | -0.2 |
| TACGAACA | 0.18 |
| CAGAGCTC | -0.238 |
| GCACCAAC | -0.128 |
| GCGCGACA | -0.103 |
| AGGCACAA | 0.489 |
| AGAGATCT | -0.247 |
| GAACCGTC | -0.12 |
| ACGGGCTC | -0.347 |
| GAGTTACC | 0.0914 |
| ACGGTTCA | -0.235 |
| AGACGCGG | -0.0745 |
| GCCACTTA | -0.122 |
| TACGACTA | -0.0995 |
| ATCTATTG | 0.0393 |
| GGGAATGA | -0.229 |
| GAGGTGCC | 0.253 |

| Sequence | PBM E-score |
| --- | --- |
| CAGCATAC | -0.0824 |
| CCCCACTA | -0.278 |
| AAGCTATT | -0.0669 |
| ACGACGAG | -0.0188 |
| CTGTTATA | 0.277 |
| CAACTTAG | 0.098 |
| AAACGGAG | 0.0165 |
| GATTGTAA | 0.211 |
| GACGGTCC | -0.305 |
| ACAAGTTG | 0.086 |
| GATGTTCA | 0.0345 |
| CCTGCGTC | -0.0965 |
| CAACGGGC | -0.00168 |
| AACAAACA | 0.259 |
| AAATTTAG | 0.043 |
| GCCAACGA | -0.0889 |
| CCGGAGCG | -0.146 |
| AGCACGCA | -0.016 |
| AAACCCCT | 0.0363 |
